Measured values as given in PubChem BioAssay AID1645882 (National Center for Advancing Translational Sciences (NCATS), 2021).
In all, about 16,000 compounds went through this assay and about 120 (0.75%) were called active. Not shown: some 4% with an inconclusive outcome. The call rests on the fitted dose curve; in most records, active means well fitted inhibition curve with a large enough effect; inconclusive means small, poorly fitted or top-dose-only effect; inactive means no such curve, though single readings can be large or run the other way. The list shows a part of the results. Where a SMILES comes first, the peptide text is derived from it. [ ]: non-standard residue; d: D form. Orn = NCCC[C@H](N)C(=O)O

biological target: Rap guanine nucleotide exchange factor 3 (Homo sapiens) (UniProt O95398); experiment: Validation qHTS for antagonist of cAMP-regulated guanine nucleotide exchange factor 3 (EPAC1); details: EPAC1 Rap1B-BODIPY-GDP exchange, fluorescence; series mostly up to 150 µM; activity change, negative = inhibition: at the top concentration; further: nearly all actives have a fitted effect of over 75% in size
From the text: Assay Provider (PI): Xiaodong Cheng Ph.D.
The University of Texas Medical Branch, […], TX
In multi-cellular eukaryotic organisms, the effects of cAMP are transduced by two ubiquitously-expressed intracellular cAMP receptors, the classic protein kinase A/cAMP-dependent protein kinase (PKA/cAPK) and the more recently discovered exchange protein directly activated by cAMP/cAMP-regulated guanine nucleotide exchange factor (EPAC/cAMP-GEF). Both PKA and EPAC are ubiquitously expressed in all tissues, and an increase in intracellular cAMP levels will lead to the activation of both PKA and EPAC. Therefore, careful dissections of the individual role and relative contribution of EPAC and PKA within the overall cAMP signaling in various model systems are critical for further elucidating the mechanism of cAMP signaling. To date no EPAC-specific antagonists and agonist, as well as isoform-specific agonists have been reported, and developing EPAC-specific pharmacological probes to determine the physiological functions that EPAC play in the overall cAMP-mediated signaling remains a major challenge within the research field. Furthermore, identified regulators of EPAC may lead to new mechanism-based therapeutic strategies specifically targeting the EPAC / cAMP-signaling components as EPAC has been implicated to play important roles in major human pathological conditions such as diabetes, heart disease, and cancer.
This qHTS will be used to screen the Molecular Libraries Small Molecule Repository (MLSMR) as a concentration-titration series using the NCGC unique quantitative screening (qHTS) platform to find activators for EPAC1. In addition, this assay will also be used as a counterscreen for the EPAC2 qHTS. This fluorescent based assay is developed and validated for EPAC1 that measures exchange using EPAC effector Rap1 complex with BODIPY-GDP, a GDP analog with a tethered fluorophores. Activators are identified by monitoring the change in fluorescence signal as the exchanged free BODIPY-GDP has a reduced fluorescence compared to Rap1-bound BODIPY-GDP. Increase in signal (activation) is the desired outcome for the EPAC1 agonist while no activity in this assay is desired for the EPAC2 agonist counterscreen.
[1] de Rooij, J., Zwartkruis, F. J., Verheijen, M. H., Cool, R. H., Nijman, S. M., Wittinghofer, A., and Bos, J.L. (1998) Nature 396, 474-477.
Briefly, three uL of reagents (100 nM EPAC1, 250 nM RAP1B-BODIPY-GDP, 50 uM GDP) were dispensed into a 1536-well Greiner black solid-bottom medium binding assay plate. Controls and test compounds (23 nL) were transferred to the plate via a Kalypsys pin tool equipped with a 1536-pin array. The plates were centrifuged at 1,000 rpm for 15 seconds followed by 5 minute incubation at room temperature. The assay plates were read at 5 minute intervals for 30 minutes in the ViewLux plate reader using 480nm excitation and 540nm emission filters. The results were normalized to the […] positive control ATA and DMSO.

Chain of UniProt O95398 (O95398 whole entry, looked up): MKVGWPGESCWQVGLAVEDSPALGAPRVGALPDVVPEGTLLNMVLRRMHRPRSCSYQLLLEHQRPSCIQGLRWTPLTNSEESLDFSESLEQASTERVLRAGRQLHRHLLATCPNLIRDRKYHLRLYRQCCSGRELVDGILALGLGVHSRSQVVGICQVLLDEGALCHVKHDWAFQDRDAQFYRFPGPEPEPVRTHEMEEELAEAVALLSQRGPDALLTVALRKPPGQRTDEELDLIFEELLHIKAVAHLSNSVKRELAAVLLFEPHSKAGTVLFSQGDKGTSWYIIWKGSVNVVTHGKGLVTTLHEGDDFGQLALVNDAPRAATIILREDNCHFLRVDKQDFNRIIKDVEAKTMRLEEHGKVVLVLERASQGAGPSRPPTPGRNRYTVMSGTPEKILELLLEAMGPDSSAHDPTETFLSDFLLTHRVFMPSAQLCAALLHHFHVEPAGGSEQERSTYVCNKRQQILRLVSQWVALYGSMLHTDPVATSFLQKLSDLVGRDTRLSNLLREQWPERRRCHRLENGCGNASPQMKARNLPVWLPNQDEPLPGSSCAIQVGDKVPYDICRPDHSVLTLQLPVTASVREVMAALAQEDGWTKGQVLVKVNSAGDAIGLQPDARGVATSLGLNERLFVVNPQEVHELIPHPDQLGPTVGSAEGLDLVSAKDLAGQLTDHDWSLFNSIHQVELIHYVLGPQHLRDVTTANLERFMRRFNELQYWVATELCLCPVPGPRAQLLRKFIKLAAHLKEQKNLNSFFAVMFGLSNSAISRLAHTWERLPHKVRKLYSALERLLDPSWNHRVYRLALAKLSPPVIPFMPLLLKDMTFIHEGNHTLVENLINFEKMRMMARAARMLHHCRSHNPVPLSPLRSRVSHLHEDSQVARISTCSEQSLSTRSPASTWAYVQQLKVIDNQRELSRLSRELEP

Activity change, negative = inhibition, inactive:
COc1ncc2nc(-c3ccc(F)cc3)c(=O)n(CCC#N)c2n1 3.93%
C[C@H]1[C@@H](OC(=O)CCC(=O)O)O[C@@H]2OC3(C)CC[C@H]4[C@H](C)CC[C@@H]1[C@@]24OO3 9.81%
CCCCCc1ccc(-c2cn(CCCOCc3ccccc3)nn2)cc1 -11.4%
CC(C)(O/N=C(\C(=O)N[C@@H]1C(=O)N2C(C(=O)[O-])=C(C[n+]3ccccc3)CS[C@H]12)c1csc(N)n1)C(=O)O 3.4% [at 75.8 µM]
C[C@@H](O)[C@H](N)C(=O)O 11.4%
O=C1[O][Bi][O]c2ccccc21 9.82%
COc1ccc(OC)c(-c2ccnc(-n3ncc(C(=O)N4CCN(CCO)CC4)c3C3CC3)n2)c1 2.87%
COc1ccccc1CCn1c(=O)c(-c2ccccc2)nc2cncnc21 -0.0863%
COC(=O)CNC(=O)c1cnn(-c2ncc3c(n2)-c2ccccc2CCC3)c1C1CC1 10.7%
CCOC(=O)C(CCc1ccccc1)NC(C)C(=O)N1CCCC1C(=O)O (stereo not given) 3.16%
CC(C)C[C@@H]1NC(=O)[C@H](CCCN)NC(=O)[C@H](C(C)C)NC(=O)[C@@H]2CCCN2C(=O)[C@@H](Cc2ccccc2)NC(=O)[C@H](CC(C)C)NC(=O)[C@H](CCCN)NC(=O)[C@H](C(C)C)NC(=O)[C@@H]2CCCN2C(=O)[C@@H](Cc2ccccc2)NC1=O (cyclo(V[Orn]L[dF]PV[Orn]L[dF]P)) 7.51%
COc1ccc(C2CC(=O)c3ccc(OC)cc3O2)cc1 (stereo not given) 18.9%
OC[C@H]1O[C@@H](OCCc2ccc(O)cc2)[C@H](O)[C@@H](O)[C@@H]1O 31.9%
Cc1c(O)cc(O)c2c(=O)c(-c3ccc(O)cc3)coc12 17.5%
CNCCC=C1c2ccccc2CCc2ccccc21
COc1cc(CNC(=O)CCCC/C=C\C(C)C)ccc1O
CCN1CCCC1CNC(=O)c1cnn(-c2nccc(-c3ccco3)n2)c1C1CC1 (stereo not given) 14.2%
CN(Cc1ccco1)c1ncncc1-c1cccnc1 9.32%
CCOC(=O)COc1ccc2c(C)c(CCN(CC)CC)c(=O)oc2c1Cl -11.6%
CC1=C(/C=C/C(C)=C/C=C/C(C)=C/C(=O)O)C(C)(C)CCC1O (stereo not given) 20.5%
O=S(=O)(c1ccccc1)N1CCC2(CCN(Cc3ccncc3)CC2)CC1 12.8%
Cc1ncc(-c2ccc(F)cc2)c(C2CCCN(Cc3cccc(O)c3)C2)n1 (stereo not given) 12.3%
CC1CCC(NC(=O)N(CCCl)N=O)CC1 (stereo not given) 12.6%
CCNC(=O)c1cc(NC(=O)COC)cc2nc(-c3ccncc3)n(C)c12 -2.75%
Cn1cc(-c2nc3cnc(Oc4cccc(Cl)c4)nc3n(CCC#N)c2=O)c2ccccc21 23.9%
COc1ccc2c(c1)OC[C@H]1c3cc4c(cc3O[C@@H]21)OCO4 -16.6%
Nc1cccc(/C=C/c2ccnc3ccccc23)c1 -28.7%
Oc1ccccc1C=NCc1ccccc1 -9.28%
CC(C)CN1CC2(CCN(C(=O)c3cccc(F)c3)CC2)C1 12%
c1nc(NC2CCNCC2)c2cc(-c3ccoc3)ccc2n1 -0.125%
Cc1cc(Cl)ccc1OCC(=O)N1CCOc2ccc(CN3C[C@@H](C)O[C@@H](C)C3)cc2C1 -4.59%
COc1cc(=O)n2c(c1C(=O)N1CCc3ccccc3C1)CCN(Cc1ccc(CO)o1)CC2 2.5%
COCC(=O)N1CCC[C@@]2(CCN(C(=O)Nc3ccc(OC)cc3)C2)C1 19%
COc1cccc(-c2ccc3ncnc(Nc4ccccc4)c3c2)c1 -17.3%
OC[C@@H]1O[C@@H](n2cnc3c(NC4CCCC4)ncnc32)[C@H](O)[C@H]1O 3.19%
COc1ccc(SC[C@H](C)CN2CC[C@H](C)CCC2=O)cc1 -14.2%
C[C@H]1C[C@H]2[C@@H]3CCC4=CC(=O)C=C[C@]4(C)[C@@]3(Cl)[C@@H](O)C[C@]2(C)[C@@]1(O)C(=O)CO 11.5%
CCCCCC(N)=O 1.91%
CCCCCCCCN1[C@@H](CC(=O)O)c2cc(F)ccc2S1(=O)=O -5.5%
CN1CCC(CN2c3ccccc3Sc3ccccc32)C1 (stereo not given) 23.5%
Clc1ccccc1-c1cncnc1NCCN1CCOCC1 0.723%
CC(=O)c1ccc(F)c(-c2cc(C)cc3c2OC(CNC(=O)C(C)n2nc(C)cc2C)C3)c1 (stereo not given) 4.3%
Oc1ccc(O)cc1
CCNc1ncc2nc(CCc3ccccc3)c(=O)n(Cc3cccc(OC)c3)c2n1 -5.72%
COc1cc(C)c(CN2C[C@H](Sc3nc4ccccc4[nH]3)C[C@H]2C(=O)N(C)C)cc1C -5.59%
COCC(=O)N1CCC2(CC1)CN(Cc1cc(C(F)(F)F)cc(C(F)(F)F)c1)C2 -1.08%
CCC1COCCS(=O)(=O)N1Cc1ccc(Cl)cc1 (stereo not given) 14%
O=C1CCN(Cc2ccccc2)CCN1CCSc1ccccc1 3.22%
COc1cc2nc(N3CCN(C(=O)C4CCCO4)CC3)nc(N)c2cc1OC (stereo not given)
O=P(O)(O)OCC(O)CO (stereo not given) 20.3%
NCC1CCCCC1CC(=O)O (stereo not given) -8.96%
COC(=O)CCC[N+](C)(C)C 14%
CC(=O)NCCNc1nc(-c2c(C)noc2C)nc2ccccc12 9.49%
COc1cccc(C(=O)NCc2nc(-c3cccc(NC(=O)c4ccoc4C)c3)oc2C)c1OC -1.59%
O=C(NCC1(N2CCOCC2)CCCCCC1)c1cnn(-c2nccc(-c3ccco3)n2)c1C1CC1 9.96%
COCCn1c(=O)c(-c2cn(C)c3ccccc23)nc2cnc(Oc3ccccc3)nc21 17.5%
Cn1cccc1C(=O)N1CCC2(CCCN(Cc3ccc(C#N)cc3)C2)CC1 7.69%
COC(=O)c1cc(CNC(=O)c2cccc(F)c2)cc(NC(=O)c2ccccc2OC)c1 -7.05%
O=C1NC(=O)C(Cc2ccccc2)(C2CCN(Cc3cccn3-c3cccnc3)CC2)N1 (stereo not given) 5.47%
CCCc1cc(OC)c2c(c1)OCO2 0.634%
COC(=O)C1CCN(Cc2ccc3c(c2)CN(C(=O)C2CCCN(c4ccccn4)C2)CCO3)CC1 (stereo not given) 12.7%
N#Cc1cccc(-c2nc(N3CCNCC3)c3ccccc3n2)c1 7.76%
Clc1ccccc1-c1nc(Nc2ccncc2)c2ccccc2n1 -3.65%
OC[C@H]1O[C@@H](n2cnc3c(N[C@H]4C[C@H]5CC[C@@H]4C5)ncnc32)[C@H](O)[C@@H]1O 5.9%
O=C(c1cnccn1)N1CCC[C@@]2(CCN(c3ccccn3)C2)C1 8.26%
